The text below walks through data of US20240384006A1 (Amgen, published 2024).

The term Kd denotes the equilibrium constant for the complex coming apart.

Where a chain is given by its changes, count along the chain named. Numbers in names are those of the source.

Assay [1] addresses T1, human CD20 (human, UniProt P11836 1-297).
T1 sequence (looked up): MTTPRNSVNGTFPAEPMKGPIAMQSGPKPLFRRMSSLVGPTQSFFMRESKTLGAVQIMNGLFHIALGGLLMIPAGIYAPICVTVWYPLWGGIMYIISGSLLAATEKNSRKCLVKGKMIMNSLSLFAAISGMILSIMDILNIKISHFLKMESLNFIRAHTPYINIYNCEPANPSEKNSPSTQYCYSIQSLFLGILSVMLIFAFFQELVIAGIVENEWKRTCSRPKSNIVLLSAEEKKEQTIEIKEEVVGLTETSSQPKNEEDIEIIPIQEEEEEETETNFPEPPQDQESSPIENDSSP
The assay can be described thus: cell-based or functional assay.

The target of assay [2] is T2, human CD22 (human, UniProt P20273 20-847).
T2 sequence (looked up): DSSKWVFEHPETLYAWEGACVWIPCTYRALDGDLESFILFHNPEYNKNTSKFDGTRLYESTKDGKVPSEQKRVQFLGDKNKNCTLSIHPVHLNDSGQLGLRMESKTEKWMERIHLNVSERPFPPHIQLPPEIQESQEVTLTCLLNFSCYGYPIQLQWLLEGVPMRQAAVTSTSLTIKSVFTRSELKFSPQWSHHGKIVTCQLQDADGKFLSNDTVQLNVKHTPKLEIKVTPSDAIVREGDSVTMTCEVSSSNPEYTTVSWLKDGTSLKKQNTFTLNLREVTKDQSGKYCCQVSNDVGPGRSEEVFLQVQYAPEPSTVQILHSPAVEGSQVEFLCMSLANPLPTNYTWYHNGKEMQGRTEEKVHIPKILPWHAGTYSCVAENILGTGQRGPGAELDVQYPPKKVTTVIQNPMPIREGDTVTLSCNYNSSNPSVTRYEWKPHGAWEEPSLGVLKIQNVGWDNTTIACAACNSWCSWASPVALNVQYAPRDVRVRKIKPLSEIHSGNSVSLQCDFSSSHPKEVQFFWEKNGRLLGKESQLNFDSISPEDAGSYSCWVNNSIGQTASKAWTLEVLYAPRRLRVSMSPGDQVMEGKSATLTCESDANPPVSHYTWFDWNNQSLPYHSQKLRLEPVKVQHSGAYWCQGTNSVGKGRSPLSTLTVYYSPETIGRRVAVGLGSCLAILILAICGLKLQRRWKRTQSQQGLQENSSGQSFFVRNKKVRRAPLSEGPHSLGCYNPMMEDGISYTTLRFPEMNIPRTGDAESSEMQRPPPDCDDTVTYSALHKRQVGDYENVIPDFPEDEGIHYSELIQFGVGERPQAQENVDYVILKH
The assay can be described thus: cell-based or functional assay.

For assay [3], the target named is T3, cyno CD20 (cyno, UniProt M4ZHZ6 1-297).
T3 construct: whole, on cells; also called cy CD20
T3 sequence: T1 sequence (looked up) with S25P, F31L, T51A, A157V, K217R, N226S, I227V, T239V
The assay can be described thus: cyno Kd divided by human Kd, cell-based affinity on CHO cells. As for the experimental part: (§1) Cell-based affinity of CD20 CD22 dual targeting antigen-binding molecules was determined by nonlinear regression (one site—specific binding) analysis. CHO cells expressing human CD20, cyno CD20, human CD22 or cyno CD22 were incubated with decreasing concentrations of CD20 CD22 dual targeting antigen-binding molecules (up to 800 nM, step 1:2 or 1:3, 11 steps) for 16 h at 4° C. Bound CD20 CD22 dual targeting antigen-binding molecules were detected with Alexa Fluor 488-conjugated AffiniPure Fab Fragment Goat Anti-Human IgG (H+L). Fixed cells were stained with DRAQ5, Far-Red Fluorescent Live-Cell Permeant DNA Dye and signals were detected by fluorescence cytometry. Respective equilibrium dissociation constant (Kd) values were calculated with the one site specific binding evaluation tool of the GraphPad Prism software. Mean Kd values and affinity gaps were calculated with Microsoft Excel.
(§2) Cell-based affinities of CD20 CD22 dual targeting antigen-binding molecules on target-transfected CHO cells were determined by nonlinear regression (one site—specific binding) analysis. Mean Kd values were calculated from three independent measurements. Affinity gaps were determined by dividing the cyno Kd by the human Kd.

Assay [4] concerns the target T4, cyno CD22 (cyno).
T4 construct: whole, on cells; also called cy CD22
The description is as above. On the procedure: as §1, §2

Assay [5] addresses T3, cyno CD20. The assay can be described thus: flow cytometry on CHO cells expressing cyno CD20, one site-specific binding fit, mean of three. On the procedure:
as §1, §2

Assay [6] concerns the target T4, cyno CD22. The assay can be described thus: flow cytometry on CHO cells expressing cyno CD22, one site-specific binding fit, mean of three. As for the experimental part:
as §1, §2
For orientation: Flow cytometry measures light scatter and fluorescence of single cells or particles in a stream.

The target of assay [7] is T1, human CD20. The assay can be described thus: flow cytometry on CHO cells expressing human CD20, one site-specific binding fit, mean of three. As for the experimental part:
as §1, §2

The target in assay [8] is T2, human CD22. The assay can be described thus: flow cytometry on CHO cells expressing human CD22, one site-specific binding fit, mean of three. On the procedure: as §1, §2

B1: CD20 82-A3 CC × CD22 53-D6 CC × I2E × scFc (O3S) (bispecific antibody)
chain: EVQLVESGGGLVQPDRSLRLSCAASGFTFRDYAMHWVRQAPGKCLEWVSGIAWNSDSIGYADSVKGRFTISRDNAKNSLFLQMHSLRPEDTALYFCAKDTLYGSGSPRAFDIWGQGTMVTVSSGGGGSGGGGSGGGGSEIVLTQSPATLSVSPGERATLSCRASQSVNNNLAWYQQKPGQAPRLLIYGASTRATGIPARFSGSGSGTEFTLTISRLEPEDFAVYYCQQSNNWPITFGCGTRLEIKSGGGGSQVQLVQSGAEVKKPGASVKVSCKASGYSFTSYGITWVRQAPGQCLEWMGWISAYNGNTIYAQKLQGRVTMTTDTSTSTAYMELRSLRSDDTAVYYCVRDSNHEDFWGQGTLVTVSSGGGGSGGGGSGGGGSEIVLTQSPATLSVSPGERATLSCRASQSVSSNLAWYQQKPGQAPRLLIYGASTRATGIPARFSGSGSGTEFTLTISSLQSEDFAVYYCQQYHTWPPVTFGCGTKVEIKSGGGGSEVQLVESGGGLVQPGGSLKLSCAASGFTFNKYAINWVRQAPGKGLEWVARIRSKYNNYATYYADAVKDRFTISRDDSKNTVYLQMNNLKTEDTAVYYCARAGNFGSSYISYWAYWGQGTLVTVSSGGGGSGGGGSGGGGSQTVVTQEPSLTVSPGGTVTIT[in this place about 80 residues]FGSGTKLTVLGGGG[in this place human IgG1 Fc with R292C N297G V302C (EU numbers)]GGGGSGGGGSGGGGSGGGGSGGGGSGGGGS[in this place human IgG1 Fc with R292C N297G V302C (EU numbers)]
notes: Single chain: anti-CD20 scFv, anti-CD22 scFv, anti-CD3 scFv (I2E), scFc
For B1, the “EC50, 48-hour FACS based cytotoxicity assay, Oci-Ly 1 CD22 k.o. #A1” value (“EC50 … Oci-Ly 1 CD22 k.o. #A1” for short) in the assay with human CD20 [1] is 0.00027 nM. Also, the “EC50, 48-hour FACS based cytotoxicity assay, Oci-Ly 1 CD20 k.o. #A5” value (from here on “EC50 … Oci-Ly 1 CD20 k.o. #A5”) with human CD22 [2] was 0.00679 nM. Besides, in the assay with cyno CD20 [3], the “Affinity gap Kdcy/Kdhu CD20” value is 0.94. Besides, in the assay with cyno CD22 [4], the “Affinity gap Kdcy/Kdhu CD22” value was determined as 8.22. Also, the Kd with cyno CD20 [5] came to 1.3 nM; with cyno CD22 [6], 2.96 nM; in the assay with human CD20 [7], 1.39 nM; with human CD22 [8], 0.36 nM.

B2: CD20 82-G2 CC × CD22 44-A8 CC × I2E × scFc (J9A) (bispecific antibody)
chain: EVQLVESGGGLVQPGRSLRLSCAASGFTFHDYTMHWVRQAPGKCLEWVSGISWNTGTIGYADSVKGRFTISRDNAKNSLYLQMNSLRAEDTALYYCVKDAFYGGDYYYNYGMDVWGHGTTVTVSSGGGGSGGGGSGGGGSEIVLTQSPATLSVSPGERATLSCRASQSVNNNLAWYQQKPGQAPRLLIYGASTRATGIPARFSGSGSGTDFTLTISSLQSDDFAVYYCQQYNNWPLTFGCGTKVEIKSGGGGSQVQLVQSGAEVKKPGASVKVSCKASGYTFTSYGISWVRQAPGQCLEWMGWISAYNGNAIYAQKLQGRVTMTRDTSTSTAYMELRSLRSDDTAVYYCARDPDYYGSGSYSDYWGQGTLVTVSSGGGGSGGGGSGGGGSEIVLTQSPATLSVSPGERATLSCRASQSVSSNLAWYQQKPGQAPRLLIYGASSRATGIPARFSGSGSGTEFTLTISSLQSEDFAVYYCQQYHSWPILHFGCGTKVEIKSGGGGSEVQLVESGGGLVQPGGSLKLSCAASGFTFNKYAINWVRQAPGKGLEWVARIRSKYNNYATYYADAVKDRFTISRDDSKNTVYLQMNNLKTEDTAVYYCARAGNFGSSYISYWAYWGQGTLVTVSSGGGGSGGGGSGGGGSQTVVTQEPSLTVSPGGTVTIT[in this place about 80 residues]FGSGTKLTVLGGGG[in this place human IgG1 Fc with R292C N297G V302C (EU numbers)]GGGGSGGGGSGGGGSGGGGSGGGGSGGGGS[in this place human IgG1 Fc with R292C N297G V302C (EU numbers)]
notes: as for B1
B2: in the assay with human CD20 [1], the “EC50 … Oci-Ly 1 CD22 k.o. #A1” value stood at 0.0183 nM. Besides, the “EC50 … Oci-Ly 1 CD20 k.o. #A5” value with human CD22 [2] came out at 0.00927 nM. The “Affinity gap Kdcy/Kdhu CD20” value with cyno CD20 [3] came to 1.15. In addition, the “Affinity gap Kdcy/Kdhu CD22” value in the assay with cyno CD22 [4] is 14.2. Besides, the dissociation constant (Kd) with cyno CD20 [5] stood at 25.9 nM; in the assay with cyno CD22 [6] it was 1.42 nM; with human CD20 [7] it was 22.5 nM; with human CD22 [8] it was 0.1 nM.

B3: CD20 82-G2 CC × CD22 53-D6 CC × I2E × scFc (F9P) (bispecific antibody)
chain: EVQLVESGGGLVQPGRSLRLSCAASGFTFHDYTMHWVRQAPGKCLEWVSGISWNTGTIGYADSVKGRFTISRDNAKNSLYLQMNSLRAEDTALYYCVKDAFYGGDYYYNYGMDVWGHGTTVTVSSGGGGSGGGGSGGGGSEIVLTQSPATLSVSPGERATLSCRASQSVNNNLAWYQQKPGQAPRLLIYGASTRATGIPARFSGSGSGTDFTLTISSLQSDDFAVYYCQQYNNWPLTFGCGTKVEIKSGGGGSQVQLVQSGAEVKKPGASVKVSCKASGYSFTSYGITWVRQAPGQCLEWMGWISAYNGNTIYAQKLQGRVTMTTDTSTSTAYMELRSLRSDDTAVYYCVRDSNHEDFWGQGTLVTVSSGGGGSGGGGSGGGGSEIVLTQSPATLSVSPGERATLSCRASQSVSSNLAWYQQKPGQAPRLLIYGASTRATGIPARFSGSGSGTEFTLTISSLQSEDFAVYYCQQYHTWPPVTFGCGTKVEIKSGGGGSEVQLVESGGGLVQPGGSLKLSCAASGFTFNKYAINWVRQAPGKGLEWVARIRSKYNNYATYYADAVKDRFTISRDDSKNTVYLQMNNLKTEDTAVYYCARAGNFGSSYISYWAYWGQGTLVTVSSGGGGSGGGGSGGGGSQTVVTQEPSLTVSPGGTVTIT[in this place about 80 residues]FGSGTKLTVLGGGG[in this place human IgG1 Fc with R292C N297G V302C (EU numbers)]GGGGSGGGGSGGGGSGGGGSGGGGSGGGGS[in this place human IgG1 Fc with R292C N297G V302C (EU numbers)]
notes: as for B1
Take B3: in the assay with human CD20 [1], the “EC50 … Oci-Ly 1 CD22 k.o. #A1” value worked out at 0.0042 nM. Also, the “EC50 … Oci-Ly 1 CD20 k.o. #A5” value with human CD22 [2] amounted to 0.00435 nM. Besides, the “Affinity gap Kdcy/Kdhu CD20” value with cyno CD20 [3] came to 0.93. For the same molecule, in the assay with cyno CD22 [4], the “Affinity gap Kdcy/Kdhu CD22” value is 10.4. Besides, the Kd with cyno CD20 [5] was determined as 29.6 nM; in the assay with cyno CD22 [6], 2.29 nM; with human CD20 [7], 31.9 nM; with human CD22 [8] it was 0.22 nM.
